Measurements as given in PubChem BioAssay AID1362 (SRMLSC, 2008).
The other results are listed elsewhere or left out. Further columns of the screen follow, without active or inactive calls. The list favours compounds with an active or inconclusive main result.

Test: growth inhibition of WT strain, primary screen, mitochondrial fusion inhibitor project, WT and mutant strains, chemical genetic (AID 1362); further: tested in S. cerevisiae
Settings: mitochondrial fusion phenotypic screen, at 10 µM

Question: For Brc1ccc2c(c1)C(OC1CN3CCC1CC3)c1ccccc1CS2 (stereo not given), which inhibition is on record?
Answer: 37.2%

Question: With O=c1[nH]c2ccccc2n1C1CCN(CCCC(c2ccc(F)cc2)c2ccc(F)cc2)CC1 as the compound, how does the inhibition read?
Answer: -11.4%

Question: For COc1ccc2ccc(O)c(CN3CC=C(c4ccccc4)CC3)c2c1, which inhibition is on record?
Answer: 20.6%

Question: Which inhibition does the source give for Cc1cccc(OP(=O)(Nc2ccc(F)cc2)Oc2cccc(C)c2)c1 here?
Answer: 25.4%

Question: For CCOC(=O)C(O)(c1ccc(NC(=S)NC(=O)c2ccc(Cl)cc2Cl)c(C)c1)C(F)(F)F (stereo not given), which inhibition is on record?
Answer: 34%

Question: For CCn1c(O)c(C(c2ccccn2)c2c(O)n(CC)c(=S)[nH]c2=O)c(=O)[nH]c1=S, which inhibition is on record?
Answer: 0.28%

Question: With CCOc1cc(CNCCc2c[nH]c3ccccc23)cc(Cl)c1OCC as the compound, how does the inhibition read?
Answer: 85.3%

Question: With Cc1c(C(c2ccc(Cl)cc2Cl)c2c(O)c3ccccc3oc2=O)c(=O)n(-c2ccccc2)n1C (stereo not given) as the compound, how does the inhibition read?
Answer: 68.5%

Question: With CC(C)C12CN3CCN(CC(C3)C1O)C2 (stereo not given) as the compound, how does the inhibition read?
Answer: 2.09%

Question: For CSc1ccc(C(=O)C2CCCN(Cc3cc4ccccc4[nH]3)C2)cc1 (stereo not given), which inhibition is on record?
Answer: 64.1%

Question: Which inhibition does the source give for N=c1c2c(n(Cc3ccc(Cl)cc3Cl)c3c1CCC3)CCCC2 here?
Answer: 63.2%

Question: With N[C@@H](Cc1c[nH]c2ccccc12)c1nnc(SCc2ccc(Cl)cc2)o1 as the compound, how does the inhibition read?
Answer: 30%

Question: With COC(=O)C1CN(C#N)N(c2ccc(Cl)cc2)C12c1ccccc1-c1ccccc12 (stereo not given) as the compound, how does the inhibition read?
Answer: -6.46%

Question: With COC(=O)c1c(N)n(Cc2ccc(OC)cc2)c2nc3ccccc3nc12 as the compound, how does the inhibition read?
Answer: -7.78%

Question: Which inhibition does the source give for CSc1nnc(C2CCNCC2)n1C here?
Answer: 8.04%

Question: For Clc1ccc2c(c1)C(c1ccccc1Cl)=NCc1nnc(N3CCN(CCOc4ccccc4)CC3)n1-2, which inhibition is on record?
Answer: -19.1%

Question: With CC12CCC3C(CC=C4CC(O)CCC43C)C1C/C(=C\c1ccccc1F)C2=O (stereo not given) as the compound, how does the inhibition read?
Answer: 6.63%

Question: For Cc1cccc(OP(=O)(NCc2ccccc2)Oc2cccc(C)c2)c1, which inhibition is on record?
Answer: 28.3%

Question: With c1ccc(-c2[nH]c(-c3ccccc3)[n+](CC3CO3)c2-c2ccccc2)cc1 (stereo not given) as the compound, how does the inhibition read?
Answer: 7.71%

Question: Which inhibition does the source give for CCCCN1C(=O)NC(=O)C2(Cc3c(nc4c(C)cccn4c3=O)N3CCc4ccccc4C32)C1=O (stereo not given) here?
Answer: 9.28%

Question: For CC1=NN(c2ccccc2)C(=O)/C1=C/c1c(O)[nH]c(=S)[nH]c1=O, which inhibition is on record?
Answer: 8.33%

Question: With CCOC(=O)CC1=C(C(=O)OCC)C2(C(=O)N1CC(=O)OC)C(C#N)=C(N)Oc1ccccc12 (stereo not given) as the compound, how does the inhibition read?
Answer: 25.6%

Question: For CN(C)c1ccc(-[n+]2c(-c3ccccc3)cc(-c3ccccc3)cc2-c2ccccc2)cc1, which inhibition is on record?
Answer: 62.4%

Question: Which inhibition does the source give for CC1CCC(C(C)C)C(OC(=O)COC(=O)c2ccccc2N)C1 (stereo not given) here?
Answer: -12%

Question: Which inhibition does the source give for CCc1ccc(NP(=O)(Oc2ccccc2F)Oc2ccccc2F)cc1 here?
Answer: 28.7%

Question: Which inhibition does the source give for Cc1ccc(-n2cc(CNC(C)Cc3cnccn3)c(-c3cccc(C)c3)n2)cc1 (stereo not given) here?
Answer: 52.9%

Question: Which inhibition does the source give for CCCCCCCCCOc1ccc2[nH]cc(CCN)c2c1 here?
Answer: 94%

Question: With O=C(COC(=O)c1ccc(O)cc1)Nc1ccc(Cl)cc1C(=O)c1ccccc1 as the compound, how does the inhibition read?
Answer: 38.5%

Question: Which inhibition does the source give for COc1ccc(NP(=O)(Oc2ccc(Cl)cc2)Oc2ccc(Cl)cc2)cc1OC here?
Answer: -4.56%

Question: For O=c1[nH]sc2cc(F)ccc12, which inhibition is on record?
Answer: 67.3%

Question: Which inhibition does the source give for Cc1oc(-c2ccccc2)nc1CN1C(=O)C(C)N=C(c2ccccc2F)c2cc(Cl)ccc21 (stereo not given) here?
Answer: -2.06%

Question: With O=c1c2ccccc2[se]n1-c1ccccc1 as the compound, how does the inhibition read?
Answer: 95.7%

Question: With O=C(Oc1c(Cl)cc(Cl)c2ccccc12)N1CCCCC1 as the compound, how does the inhibition read?
Answer: 26.9%

Question: With CCCCCc1nc2c(c(=O)c3ccccc3n2C)c(=O)n1C1CCCCCC1 as the compound, how does the inhibition read?
Answer: 88.5%

Question: Which inhibition does the source give for O=C(c1ccco1)c1cn(Cc2ccc(Cl)cc2)c2ccccc12 here?
Answer: 23.1%

Question: For CCC(=O)Nc1ccc(N2CCN(CC)CC2)c(Cl)c1, which inhibition is on record?
Answer: -28.9%

Question: For CNC(C(=O)c1ccccc1)C(OC)c1ccccc1 (stereo not given), which inhibition is on record?
Answer: 4.21%

Question: With Clc1ccccc1CN1CCN(c2ccccc2Cl)CC1 as the compound, how does the inhibition read?
Answer: 62.5%

Question: With CC(C)(O)[C@H]1O[C@H]2CC[C@@]3(C)[C@@](O)(CC[C@H]4Cc5c([nH]c6ccccc56)[C@@]43C)C2=CC1=O as the compound, how does the inhibition read?
Answer: 20.8%

Question: For CCC(=Nc1ccc(OC)cc1OC)c1c(O)n(C2CCCCC2)c(=O)[nH]c1=O, which inhibition is on record?
Answer: 12.5%

Question: Which inhibition does the source give for N=C(N)c1c(O)n(C2CCCCC2)c(=O)n(C2CCCCC2)c1=O here?
Answer: 2.9%

Question: For C/C(=N\N1CCCCC1c1cccnc1)c1c(O)n(C2CCCCC2)c(=S)[nH]c1=O (stereo not given), which inhibition is on record?
Answer: 22.3%

Question: For C/C1=C\[C@@H](C)C/C=C/[C@H]2[C@@H]3O[C@]3(C)[C@@H](C)[C@H]3[C@H](Cc4c[nH]c5ccccc45)NC(=O)[C@]32C(=O)/C=C/C(=O)[C@@H]1O, which inhibition is on record?
Answer: -20%

Question: Which inhibition does the source give for CN1C2CCC1/C(=C/c1ccccn1)C(=O)/C2=C\c1ccccn1 here?
Answer: 77%

Question: For CCCCn1c(=O)c(C(=O)Nc2nnc(C(C)C)s2)c(O)c2ccccc21, which inhibition is on record?
Answer: 33.1%

Question: For CN(C)c1ccc(/C=C/c2cc[n+](C)c3ccccc23)cc1, which inhibition is on record?
Answer: 75.3%

Question: Which inhibition does the source give for COC(=O)C(O)(c1ccc(NC(=S)NC(=O)c2ccc(Cl)cc2Cl)c(C)c1)C(F)(F)F (stereo not given) here?
Answer: 45.8%

Question: For CCCCc1nc2ccccc2c(=O)n1-c1ccc(Cl)cc1[N+](=O)[O-], which inhibition is on record?
Answer: -6.42%

Question: With O=P(Nc1cccc(Cl)c1)(Oc1ccccc1)Oc1ccccc1 as the compound, how does the inhibition read?
Answer: 37.9%

Question: For CCCCn1c(O)c(/C(CC)=N/N2CCCCC2c2cccnc2)c(=O)[nH]c1=S (stereo not given), which inhibition is on record?
Answer: 17.4%

Question: Which inhibition does the source give for CC[n+]1c(SC)ccc2cc(OC)ccc21 here?
Answer: 0%

Question: For O=C1NC(=O)C(CCc2ccncc2)(Cc2cccc(Cl)c2Cl)C(=O)N1c1ccc(Br)cc1 (stereo not given), which inhibition is on record?
Answer: -0.32%

Question: Which inhibition does the source give for Cc1cccc(C)c1NC(=O)c1cccn(Cc2ccc3c(c2)OC(F)(F)O3)c1=O here?
Answer: 51.5%

Question: Which inhibition does the source give for CCCCCCCSc1cc(OC)c(CCNC)cc1OC here?
Answer: 86.7%

Question: For CCOC(=O)c1c(C)n(Cc2ccccc2)c2ccc(OCC(O)Cn3nc(C)cc3C)cc12 (stereo not given), which inhibition is on record?
Answer: 13.6%

Question: Which inhibition does the source give for CCCCCn1c(=O)c(C(=O)Nc2ccccc2S(N)(=O)=O)c(O)c2ccccc21 here?
Answer: 53.9%

Question: For CC(C)Oc1cc(-n2c(=S)[nH]c3ccccc3c2=O)c(Cl)cc1Cl, which inhibition is on record?
Answer: 50.1%

Question: With CCOC(=O)C1=C(NC(=S)NC(=O)c2ccccc2)c2ccccc2CC12CCCC2 as the compound, how does the inhibition read?
Answer: 15%

Question: With OCCNc1c2c(nc3ccccc13)CCCC2 as the compound, how does the inhibition read?
Answer: 13.3%

Question: For CCCC/C(C)=C/[C@@H](NP(=O)(c1ccccc1)c1ccccc1)c1ccccc1, which inhibition is on record?
Answer: -1.92%

Question: Which inhibition does the source give for O=c1[nH]c(=S)n(C2CC2)c(O)c1/C=N/Nc1ccccc1 here?
Answer: 33.9%

Question: For CCC(=NCc1ccc2c(c1)OCO2)c1c(O)n(C2CCCCC2)c(=O)[nH]c1=O, which inhibition is on record?
Answer: 34.4%

Question: With CN(CC1COc2ccccc2O1)c1nc(-c2cccnc2)nc2ccccc12 (stereo not given) as the compound, how does the inhibition read?
Answer: 67.6%

Question: Which inhibition does the source give for NS(=O)(=O)c1ccc(N=Cc2c(O)n(C3CCCCC3)c(=O)n(C3CCCCC3)c2=O)cc1 here?
Answer: 81.4%

Question: Which inhibition does the source give for CCOC(=O)c1c(-n2c(C)cc(C=C3C(=O)NC(=S)NC3=O)c2C)sc2c1CCCC2 here?
Answer: 22.9%

Question: Which inhibition does the source give for Cc1oc2ccc(OC(=O)N(C)C)cc2c1C(=O)OC(C)C here?
Answer: 69.4%

Question: For CCn1nc(/C=C/c2ccccc2)nc2c(=O)n(C)c(=O)nc1-2, which inhibition is on record?
Answer: 89.5%

Question: For CCOC(=O)C1SC2(C(F)F)CC1(O)c1c(c(OC)c3occc3c1OC)O2 (stereo not given), which inhibition is on record?
Answer: 15.7%

Question: With Cc1oc(-c2ccccc2)nc1CN1C(=O)CN=C(c2ccccc2)c2ccccc21 as the compound, how does the inhibition read?
Answer: 2.07%

Question: For CCCCCCn1c(N)c(C(=O)NCCN2CCOCC2)c2nc3ccccc3nc21, which inhibition is on record?
Answer: 2.85%

Question: Which inhibition does the source give for O=C(Nc1ccc(F)cc1)N1CC2CC(C1)c1cccc(=O)n1C2 (stereo not given) here?
Answer: -10.4%

Question: Which inhibition does the source give for O=c1[nH]c(=S)n(CCC2=CCCCC2)c(O)c1C=NC1CCN(Cc2ccccc2)CC1 here?
Answer: 31.6%

Question: Which inhibition does the source give for C=C(C=O)CC1CC(O)[C@]2(C)OC3CC4OC5C[C@]6(C)O[C@]7(C)CCC8OC9C[C@]%10(C)OC%11C(C)=CC(=O)OC%11CC%10OC9C[C@@H](C)C8OC7CC6O[C@]5(C)CC5OC5C4OC3CC2O1 (stereo not given in full) here?
Answer: 77.5%

Question: For Cc1oc(-c2ccccc2Cl)nc1CN1C(=O)CN=C(c2ccccc2)c2ccccc21, which inhibition is on record?
Answer: -4.44%

Question: For O=C1C(=O)c2ccccc2-c2ccccc21, which inhibition is on record?
Answer: 93.6%

Question: Which inhibition does the source give for O=c1c2ccccc2[nH]c(=S)n1-c1ccc2c(c1)OCO2 here?
Answer: -13.7%

Question: With Cc1c2ccncc2c(C)c2c1[nH]c1ccccc12 as the compound, how does the inhibition read?
Answer: 45.9%

Question: For Cc1ccc2c(c1)C1CN(C)CCC1N2C(=O)c1cn(-c2ccccc2)nc1-c1ccccc1 (stereo not given), which inhibition is on record?
Answer: 26.2%

Question: For CCCCn1c(=O)c(C(=O)Nc2ccccc2S(N)(=O)=O)c(O)c2ccccc21, which inhibition is on record?
Answer: 58.4%

Question: For CCC(C)(C)n1nnnc1C(c1cccs1)N1CC=C(c2ccc(F)cc2)CC1 (stereo not given), which inhibition is on record?
Answer: 57.1%

Question: With Clc1ccc2c(c1)C(c1ccccc1Cl)=NCc1nnc(N3CCN(CCSc4ccccc4)CC3)n1-2 as the compound, how does the inhibition read?
Answer: 1.05%

Question: For CCOC(=O)c1c(NC(NC(=O)CF)C(Cl)(Cl)Cl)sc2c1CCCC2 (stereo not given), which inhibition is on record?
Answer: 30.9%

Question: For CC/C(=C\C=C\[C@@H]1C=C[C@@H]2CCC[C@H]2[C@@H]1C(=O)c1ccc[nH]1)[C@@H]1O[C@@H]([C@@H](C)C(=O)O)CC[C@@H]1C, which inhibition is on record?
Answer: 75.8%

Question: Which inhibition does the source give for CCCCC/C=C\C/C=C\C/C=C\C/C=C\CCCC(=O)Nc1ccc(O)cc1 here?
Answer: 12.4%

Question: For COc1cccc(NP(=O)(Oc2ccc(Cl)cc2)Oc2ccc(Cl)cc2)c1, which inhibition is on record?
Answer: 23.5%
